Like-named read-outs stand apart in the source and are kept apart here.
What was measured:
RS4;11 cells = experiment: cells; details: Homo sapiens
Molt-4 cells = experiment: cells; details: Homo sapiens
[1] = RS4-11, 48 h, read-out: Cellular activity (IC50, nM) RS4;11
[2] = MOLT-4, read-out: Cellular activity (IC50, nM) Molt-4
[3] = RS4-11, 48 h, read-out: Cellular activity (IC50, nM) RS4, 11

Compound | IC50 (RS4;11 cells; [1]) | IC50 (Molt-4 cells; [2]) | IC50 (RS4;11 cells; [3]) | IC50 (RS4;11 cells; RS4-11, read-out: Celluclar activity (IC50, nM) RS 4, 11) | IC50 (Molt-4 cells; MOLT-4, read-out: Celluclar activity (IC50, nM) Molt-4)
CN(CC1CCCN1C)c1ccccc1C1CCCN1c1ccc(-c2ccc(C(=O)NS(=O)(=O)c3ccc(NCC4CCOCC4)c([N+](=O)[O-])c3)c(Oc3cnc4[nH]ccc4c3)c2)cc1 (stereo not drawn) [Example A135, 3-((1H-pyrrolo[2,3-b]pyridin-5-yl)oxy)-4′-(2-(2-(methyl((1-methylpyrrolidin-2-yl)methyl)amino)phenyl)pyrrolidin-1-yl)-N-((3-nitro-4-(((tetrahydro-2H-pyran-4-yl)methyl)amino)phenyl)sulfonyl)-[1,1′-biphenyl]-4-carboxamide] | 12 nM | 751 nM | – | – | –
O=C(NS(=O)(=O)c1ccc(NCC2CCOCC2)c([N+](=O)[O-])c1)c1ccc(-c2ccc(N3CC(Cl)CC3c3ccccc3C3CC3)cc2)cc1Oc1cnc2[nH]ccc2c1 (stereo not drawn) [Example A74, 3-((1H-pyrrolo[2,3-b]pyridin-5-yl)oxy)-4′-(4-chloro-2-(2-cyclopropylphenyl)pyrrolidin-1-yl)-N-((3-nitro-4-(((tetrahydro-2H-pyran-4-yl)methyl)amino)phenyl)sulfonyl)-[1,1′-biphenyl]-4-carboxamide] | – | 1850 nM | 8.6 nM | – | –
O=C(NS(=O)(=O)c1ccc(OCC2CCOCC2)c([N+](=O)[O-])c1)c1ccc(C2=CCC(N3CCCC3c3ccccc3C3CC3)CC2)cc1Oc1cnc2[nH]ccc2c1 (stereo not drawn) [Example G20, 3-((1H-pyrrolo[2,3-b]pyridin-5-yl)oxy)-4′-(2-(2-cyclopropylphenyl)pyrrolidin-1-yl)-N-((3-nitro-4-((tetrahydro-2H -pyran-4-yl)methoxy)phenyl)sulfonyl)-2′,3′,4′,5′-tetrahydro-[1,1′-biphenyl]-4-carboxamide] | – | > 10000 nM | 53 nM | – | –
O=C(NS(=O)(=O)c1ccc(NCC2CCOCC2)c([N+](=O)[O-])c1)c1ccc(C2=CCC(N3CCCC3c3sccc3C3CC3)CC2)cc1Oc1cnc2[nH]ccc2c1 (stereo not drawn) [Example C57, 3-((1H-pyrrolo[2,3-b]pyridin-5-yl)oxy)-4′-(2-(3-cyclopropylthiophen-2-yl)pyrrolidin-1-yl)-N-((3-nitro-4-(((tetrahydro-2H-pyran-4-yl)methyl)amino)phenyl)sulfonyl)-2′,3′,4′,5′-tetrahydro-[1,1′-biphenyl]-4-carboxamide] | – | > 10000 nM | 463 nM | – | –
O=C(NS(=O)(=O)c1ccc(NCC2CCOCC2)c([N+](=O)[O-])c1)c1ccc(N2CCC3(CC2)CC(N2CCCCCC2c2ccccc2C2CC2)C3)cc1Oc1cnc2[nH]ccc2c1 (stereo not drawn) [Example F95, 2-((1H-pyrrolo[2,3-b]pyridin-5-yl)oxy)-4-(2-(2-(2-cyclopropylphenyl)azepan-1-yl)-7-azaspiro[3.5]nonan-7-yl)-N-((3-nitro-4-(((tetrahydro-2H-pyran-4-yl)methyl)amino)phenyl)sulfonyl)benzamide] | 7.8 nM | 4170 nM | – | – | –
O=C(NS(=O)(=O)c1ccc(NCC2CCOCC2)c([N+](=O)[O-])c1)c1ccc(C2=CCC(N3CCCC3c3cccc4ccccc34)CC2)cc1Oc1cnc2[nH]ccc2c1 (stereo not drawn) [Example C11, 3-((1H-pyrrolo[2,3-b]pyridin-5-yl)oxy)-4′-(2-(naphthalen-1-yl)pyrrolidin-1-yl)-N-((3-nitro-4-(((tetrahydro-2H-pyran-4-yl)methyl)amino)phenyl)sulfonyl)-2′,3′,4′,5′-tetrahydro-[1,1′-biphenyl]-4-carboxamide] | – | > 10000 nM | 261 nM | – | –
O=C(NS(=O)(=O)c1ccc(NC[C@H]2CN(C3COC3)CCO2)c([N+](=O)[O-])c1)c1ccc(C2=CCC(N3CCCC3c3ccccc3C3CC3)CC2)cc1Oc1cnc2[nH]ccc2c1 (stereo partly drawn) [Example G111, 3-((1H-pyrrolo[2,3-b]pyridin-5-yl)oxy)-4′-(2-(2-cyclopropylphenyl)pyrrolidin-1-yl)-N-((3-nitro-4-((((S)-4-(oxetan-3-yl)morpholin-2-yl)methyl)amino)phenyl)sulfonyl)-2′,3′,4′,5′-tetrahydro-[1,1′-biphenyl]-4-carboxamide] | – | > 10000 nM | 253 nM | – | –
COCC1CCC(CNc2ccc(S(=O)(=O)NC(=O)c3ccc(C4=CCC(N5CCCC5c5ccccc5C5CC5)CC4)cc3Oc3cnc4[nH]ccc4c3)cc2[N+](=O)[O-])CC1 (stereo not drawn) [Example G86, 3-((1H-pyrrolo[2,3-b]pyridin-5-yl)oxy)-4′-(2-(2-cyclopropylphenyl)pyrrolidin-1-yl)-N-((4-(((4-(methoxymethyl)cyclohexyl)methyl)amino)-3-nitrophenyl)sulfonyl)-2′,3′,4′,5′-tetrahydro-[1,1′-biphenyl]-4-carboxamide] | – | 9760 nM | 254 nM | – | –
CC(C)N1CCN(C2CC3(CCN(c4ccc(C(=O)NS(=O)(=O)c5ccc(NCC6CCOCC6)c([N+](=O)[O-])c5)c(Oc5cnc6[nH]ccc6c5)c4)CC3)C2)C(c2ccccc2C2CC2)C1 (stereo not drawn) [Example F92, 2-((1H-pyrrolo[2,3-b]pyridin-5-yl)oxy)-4-(2-(2-(2-cyclopropylphenyl)-4-isopropylpiperazin-1-yl)-7-azaspiro[3.5]nonan-7-yl)-N-((3-nitro-4-(((tetrahydro-2H-pyran-4-yl)methyl)amino)phenyl)sulfonyl)benzamide] | 1.2 nM | 1370 nM | – | 1.2 nM | 1370 nM
CCC1(c2ccccc2)CCCN1c1ccc(-c2ccc(C(=O)NS(=O)(=O)c3ccc(NCC4CCOCC4)c([N+](=O)[O-])c3)c(Oc3cnc4[nH]ccc4c3)c2)cc1 (stereo not drawn) [Example A55, 3-((1H-pyrrolo[2,3-b]pyridin-5-yl)oxy)-4′-(2-ethyl-2-phenylpyrrolidin-1-yl)-N-((3-nitro-4-(((tetrahydro-2H-pyran-4-yl)methyl)amino)phenyl)sulfonyl)-[1,1′-biphenyl]-4-carboxamide] | – | 8030 nM | 215 nM | – | –
CC1(C)CCN(C2CC3(CCN(c4ccc(C(=O)NS(=O)(=O)c5ccc(NCC6CCOCC6)c([N+](=O)[O-])c5)c(Oc5cnc6[nH]ccc6c5)c4)CC3)C2)C1c1ccccc1C1CC1 (stereo not drawn) [Example F89, 2-((1H-pyrrolo[2,3-b]pyridin-5-yl)oxy)-4-(2-(2-(2-cyclopropylphenyl)-3,3-dimethylpyrrolidin-1-yl)-7-azaspiro[3.5]nonan-7-yl)-N-((3-nitro-4-(((tetrahydro-2H-pyran-4-yl)methyl)amino)phenyl)sulfonyl)benzamide] | 27 nM | 4010 nM | – | – | –
O=C(NS(=O)(=O)c1ccc(NCC2CCOCC2)c([N+](=O)[O-])c1)c1ccc(-c2ccc(N3CC(F)=CC3c3ccccc3C3CC3)cc2)cc1Oc1cnc2[nH]ccc2c1 (stereo not drawn) [Example A146, 3-((1H-pyrrolo[2,3-b]pyridin-5-yl)oxy)-4′-(2-(2-cyclopropylphenyl)-4-fluoro-2,5-dihydro-1H-pyrrol-1-yl)-N-((3-nitro-4-(((tetrahydro-2H-pyran-4-yl)methyl)amino)phenyl)sulfonyl)-[1,1′-biphenyl]-4-carboxamide] | 22 nM | 1900 nM | – | – | –
O=C(NS(=O)(=O)c1ccc(NCC2CCOCC2)c([N+](=O)[O-])c1)c1ccc(C2=CCC(N3CCCC3c3ccccn3)CC2)cc1Oc1cnc2[nH]ccc2c1 (stereo not drawn) [Example C7, 3-((1H-pyrrolo[2,3-b]pyridin-5-yl)oxy)-N-((3-nitro-4-(((tetrahydro-2H-pyran-4-yl)methyl)amino)phenyl)sulfonyl)-4′-(2-(pyridin-2-yl)pyrrolidin-1-yl)-2′,3′,4′,5′-tetrahydro-[1,1′-biphenyl]-4-carboxamide] | – | > 10000 nM | 2180 nM | – | –
O=C(NS(=O)(=O)c1ccc(NCC2CCOCC2)c([N+](=O)[O-])c1)c1ccc(C2=CCC(N3CC(F)CC3c3ccccc3C3CC3)CC2)cc1Oc1cnc2[nH]ccc2c1 (stereo not drawn) [Example C89, 3-((1H-pyrrolo[2,3-b]pyridin-5-yl)oxy)-4′-(2-(2-Cyclopropylphenyl)-4-fluoropyrrolidin-1-yl)-N-((3-nitro-4-(((tetrahydro-2H-pyran-4-yl)methyl)amino)phenyl)sulfonyl)-2′,3′,4′,5′-tetrahydro-[1,1′-biphenyl]-4-carboxamide] | – | 7610 nM | 328 nM | – | –
O=C(NS(=O)(=O)c1ccc(N[C@H]2CC[C@H](N(CC3CC3)CC3CC3)CC2)c([N+](=O)[O-])c1)c1ccc(C2=CCC(N3CCCC3c3ccccc3C3CC3)CC2)cc1Oc1cnc2[nH]ccc2c1 (stereo partly drawn) [Example G13, 3-((1H-pyrrolo[2,3-b]pyridin-5-yl)oxy)-N-((4-(((1r,4r)-4-(bis(cyclopropylmethyl)amino)cyclohexyl)amino)-3-nitrophenyl)sulfonyl)-4′-(2-(2-cyclopropylphenyl)pyrrolidin-1-yl)-2′,3′,4′,5′-tetrahydro-[1,1′-biphenyl]-4-carboxamide] | – | > 10000 nM | 72 nM | – | –
CCc1ccccc1[C@H]1CCCN1c1ccc(-c2ccc(C(=O)NS(=O)(=O)c3ccc(NC[C@H]4CC[C@](C)(O)CC4)c([N+](=O)[O-])c3)c(Oc3cnc4[nH]ccc4c3)c2)cc1 [Example G103, 3-((1H-pyrrolo[2,3-h]pyridin-5-yl)oxy)-4′-((R)-2-(2-ethylphenyl)pyrrolidin-1-yl)-N-((4-((((1r,4r)-4-hydroxy-4-methylcyclohexyl)methyl)amino)-3-nitrophenyl)sulfonyl)-[1,1′-biphenyl]-4-carboxamide] | – | 9590 nM | 58 nM | – | –
CN(C)C1CC1c1ccccc1[C@H]1CCCN1c1ccc(-c2ccc(C(=O)NS(=O)(=O)c3ccc(NCC4CCOCC4)c([N+](=O)[O-])c3)c(Oc3cnc4[nH]ccc4c3)c2)cc1 (stereo partly drawn) [Example A97, 3-((1H-pyrrolo[2,3-b]pyridin-5-yl)oxy)-4′-((2R)-2-(2-(2-(dimethylamino)cyclopropyl)phenyl)pyrrolidin-1-yl)-N-((3-nitro-4-(((tetrahydro-2H-pyran-4-yl)methyl)amino)phenyl)sulfonyl)-[1,1′-biphenyl]-4-carboxamide] | 4.8 nM | 1410 nM | – | – | –

Reference: patent publication US11420968B2 (priority 2018, dated 2022)
